# In PubChem BioAssay AID588591 (National Center for Advancing Translational Sciences (NCATS), 2011):
# Hit rate of the full screen: of about 390,000 compounds, about 4,700 (1.2%) were called active. Roughly 4% stayed inconclusive and do not appear here. Calls come from the whole dose curve; as a rule, active = well fitted inhibition curve with a large enough effect; inconclusive = small, poorly fitted or top-dose-only effect, or another doubt; inactive = no such curve, though single readings can be large or run the other way. This is a selection; strong and weak results do not stand in their true shares.
# Biological target: DNA polymerase eta (Homo sapiens) (UniProt Q9Y253)
# UniProt Q9Y253, sequence (Q9Y253 whole entry, looked up): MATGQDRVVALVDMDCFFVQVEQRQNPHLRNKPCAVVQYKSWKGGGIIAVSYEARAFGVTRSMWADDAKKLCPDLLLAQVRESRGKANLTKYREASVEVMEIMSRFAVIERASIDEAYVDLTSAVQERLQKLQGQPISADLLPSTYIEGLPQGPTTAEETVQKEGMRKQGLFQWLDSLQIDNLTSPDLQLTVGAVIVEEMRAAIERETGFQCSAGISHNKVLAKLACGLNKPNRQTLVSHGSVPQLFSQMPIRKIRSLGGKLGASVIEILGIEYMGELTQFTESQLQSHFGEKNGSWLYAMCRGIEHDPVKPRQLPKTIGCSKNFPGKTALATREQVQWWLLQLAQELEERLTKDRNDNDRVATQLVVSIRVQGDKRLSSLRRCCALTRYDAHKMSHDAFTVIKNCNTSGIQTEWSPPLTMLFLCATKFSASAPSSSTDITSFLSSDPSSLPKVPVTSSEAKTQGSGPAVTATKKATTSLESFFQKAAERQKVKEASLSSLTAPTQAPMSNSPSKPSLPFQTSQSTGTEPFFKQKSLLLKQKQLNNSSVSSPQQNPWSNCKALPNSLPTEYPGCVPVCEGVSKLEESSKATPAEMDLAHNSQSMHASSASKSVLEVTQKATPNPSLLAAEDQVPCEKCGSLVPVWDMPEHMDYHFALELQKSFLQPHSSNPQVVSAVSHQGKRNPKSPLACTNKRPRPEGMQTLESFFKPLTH
# Assay: qHTS for Inhibitors of Polymerase Eta
# Settings: recombinant Pol eta, fluorescent DNA replication assay; series mostly up to 114 µM; activity change, negative = inhibition: at the top concentration
# Method in brief: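 Fluorescent replication assay: 50 nM final substrate added after a 15 min room-temperature compound preincubation with 10 nM enzyme. Signal taken at 0 min and again at 10 min.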
# % is set by controls: 0 for no effect and ±100 for the full control effect; potency is the fitted concentration of half-maximal effect.
SMILES,"activity change, negative = inhibition",Potency
O=C(Nc1cccc2c1C(=O)NC2=O)c1ccc(S(=O)(=O)N2CCCC2)cc1,inactive: 5.16%,–
CC(C)C(=O)Nc1ccc(C(=O)NNC(=S)NC(=O)c2ccco2)cc1,inactive: 26.6%,–
O=C(Nc1ccc(Cl)cc1Cl)c1cccc(N2C(=O)C=CC2=O)c1,inactive: 40.6%,–
CSc1ccccc1NC(=O)COC(=O)c1c[nH]c(=O)[nH]c1=O,inactive: 40.8%,–
Cc1cc(C)n2nc(CC(=O)NNC(=O)c3ccc(N(C)C)cc3)nc2n1,inactive: 17.1%,–
O=C(NCCN1C(=O)S/C(=C\c2cccnc2)C1=O)c1ccc(S(=O)(=O)N2CCCC2)cc1,inactive: -14.2%,–
Cc1ccc(C)c(NC(=O)Cn2nnc(C(=O)Nc3c(C)cccc3C)c2N)c1,inactive: -3.91%,–
O=C(/C=C/c1ccc(-c2ccccc2)o1)c1ccccc1,inactive: -25.1%,–
CCN(CC)c1ccc(/C=C(\C#N)C(N)=S)cc1,inactive: 39.5%,–
S=c1[nH]nc(-c2cc(-c3ccccc3)n[nH]2)n1/N=C/C(Br)=C/c1ccccc1,–,active: 50.1 µM
O=C(N/N=C/c1cc([N+](=O)[O-])ccc1O)c1c[nH]c2ccccc12,inactive: 31.4%,–
C=CC[C@@H](CC(=O)N(CCO)Cc1ccccc1)C(=O)N[C@H](C)COC(=O)[C@@H](CC=C)Cc1ccc(F)cc1,inactive: -13.1%,–
S=C(Nc1ccc2c(c1)OCO2)Nc1ccccc1Cl,inactive: 31.5%,–
O=C(NCc1ccco1)C1CCCN(S(=O)(=O)c2cccc3nsnc23)C1 (configuration not stated),inactive: -7.7%,–
CCC(=O)Nc1ccc(-n2nnnc2SCC(=O)NNC(=O)c2ccco2)cc1,inactive: 38.9%,–
c1ccc(-c2nnc(-c3ccccn3)nn2)nc1,inactive: 35%,–
O=C1NC(=Nc2ccccc2)S/C1=C\c1cccs1,inactive: 52.2%,–
O=C(c1cnn2c(-c3ccccc3)cc(-c3ccccc3)nc12)N1CCN(Cc2ccccc2)CC1,inactive: 44.1%,–
COc1ccc(/C=C/C(=O)NCC(=O)N=Nc2c(O)[nH]c3ccc([N+](=O)[O-])cc23)cc1,–,active: 35.5 µM
C=CC[C@H](CC(=O)N(CCO)Cc1ccccc1)C(=O)N[C@@H](COC(=O)[C@@H](CC=C)CC(=O)OC(C)(C)C)Cc1c[nH]c2ccccc12,inactive: -25.9%,–
O=C(CCN1C(=O)/C(=C\c2cccs2)SC1=S)NC1=NCCS1,inactive: -18.3%,–
CCCCN(C(=O)c1ccc(-c2ccc([N+](=O)[O-])cc2)o1)c1c(N)n(CC(C)C)c(=O)[nH]c1=O,inactive: 16.3%,–
CCC1CN(C(=O)NCc2ccc(F)cc2)c2cc(Cl)ccc2O1 (configuration not stated),inactive: -11.3%,–
COc1ccc(N=C2NC(=O)S/C2=C\c2ccc(N(C)C)cc2)cc1,inactive: 20.9%,–

SMILES,"activity change, negative = inhibition",Potency
CC1=NN(c2ccccc2)C(=O)C1/C=C1\NC(=S)NC1=O (configuration not stated),–,active: 3.16 µM
CCOCCCNC(=O)c1cn(CC(C)C)c(=O)c2c1c1ccccc1n2C,inactive: -3.8%,–
CC(/C=N/n1c(-c2ccc(Cl)cc2)n[nH]c1=S)=C\c1ccco1,–,active: 17.8 µM
COc1ccccc1CCNC(=O)c1cc(-c2ccncc2)nc2ccc(Br)cc12,–,active: 44.7 µM
CC1(N(O)C=C2C=CC(=O)C=C2)CCCCC1=O (configuration not stated),inactive: 19.3%,–
O=C1/C(=C\c2cccnc2)Sc2ccccc21,inactive: -10.7%,–
C=CC[C@@H](Cc1ccc(F)cc1)C(=O)OC[C@@H]1CCCN1C(=O)[C@@H](CC=C)CC(=O)N[C@H](CO)Cc1ccccc1,inactive: -26.5%,–
O=C(NCc1ccccc1)C1=C[C@@H](C2CCCCC2)C[C@@H](OCc2ccc(CO)cc2)O1,inactive: -17.3%,–
COC(=O)c1ccc(C(=O)OC)c(NC(=S)N2CCOCC2)c1,inactive: -5.23%,–
C=CC[C@H](CC(=O)OC(C)(C)C)C(=O)OC[C@H]1CCCN1C(=O)[C@@H](CC=C)CC(=O)N(CCO)Cc1ccccc1,inactive: -17.7%,–
O=C(COc1cc2oc(=O)cc(-c3ccccc3)c2cc1Cl)NC(Cc1c[nH]c2ccc(O)cc12)C(=O)O (configuration not stated),–,active: 50.1 µM
COc1ccc(OC)c(CNC(=O)CCC(=O)N2Cc3ccccc3Oc3ncccc32)c1,inactive: 4.32%,–
O=C1CCCC(O)=C1Sc1cc(Cl)c(Cl)cc1Cl,inactive: 30.6%,–
CN1C(=O)/C(=C/c2cc(N=Nc3ccccc3)ccc2O)SC1=S,inactive: -8.92%,–
Cc1oc(-c2ccc(C(=O)Nc3ccc(F)cc3F)cc2)nc1COc1ccccc1,inactive: 19.9%,–
Cc1cccc(C)c1OCC(=O)N/N=C/C=C/c1ccco1,inactive: 16.6%,–
C/C(N)=C(/C#N)C(=O)COC(=O)CCSc1ccccc1,inactive: 5.99%,–
Cn1c(=O)n(C)c2cc([N+](=O)[O-])c(N3CCN(C(=O)c4ccc(F)cc4)CC3)cc21,inactive: -11.2%,–
Cc1nnc(SCC(=O)Nc2sccc2C#N)n1Cc1ccccc1,inactive: -62.7%,–
O=C(NCc1ccccc1)c1ccc(S(=O)(=O)Nc2cccc(C(F)(F)F)c2)cc1,inactive: 33.6%,–
O=C1c2cccc3cccc(c23)C(=O)N1c1ccncc1,inactive: 8.96%,–
COc1ccc(C(=O)N/C(=C\c2cccs2)c2nc3ccccc3[nH]2)cc1OC,inactive: -11.9%,–
COc1ccccc1OCCOc1ccc(/C=C2\C(=N)N3N=C(S(C)(=O)=O)SC3=NC2=O)cc1,–,active: 22.4 µM
